As a reminder, the % Inhibition is the relative decrease from the control value, in per cent.

The campaign covered roughly 150,000 compounds. About 540 (0.36%) showed an effect of 50% or more. Some of the results follow.

From ChEMBL document CHEMBL4888484, “Replenishing the malaria drug discovery pipeline: Screening and hit evaluation of the MMV Hit Generation Library 1 (HGL1) against asexual blood stage Plasmodium falciparum ,using a nano luciferase reporter read-out” (2022) come the findings set out here.

The experiment relates to Plasmodium falciparum. Nature of the experiment: Primary screen in NF54 nanoGlo assay, in single point, at 2uM, 72h; a lower Z score goes with more inhibition. The class given is functional, Erythrocyte. As to conditions: timepoint 72 hour.
For the compound `Cc1nnsc1CN1CCCN(S(=O)(=O)N2CCCC2)CC1`, the “% Inhibition” value is -5% and the Z score is listed as 0.84.

Turning to `C[C@@H]1CN(C(=O)C2CC2c2ccccc2OC(F)(F)F)CCN1C(=O)OC(C)(C)C` (stereo partly specified), the “% Inhibition” value is listed as -10% and the Z score turned out to be 0.94.

On to `COc1ccc(-n2nc(C)c3c2NC(=O)C[C@@H]3c2ccccc2F)nn1`, for which the “% Inhibition” value is reported as -11% and the Z score is recorded as 1.38.

With `COCc1ccc(C(=O)N2CCC[C@@H]2CC(=O)c2ccccc2)cc1`, the “% Inhibition” value was -1% and the Z score is 0.07.

Turning to `Cc1cccc(CNC(=O)[C@H]2CCN(c3cn[nH]c(=O)c3)C2)c1`, the “% Inhibition” value is reported as -12% and the Z score is 1.58.

Regarding `Cc1ccc([C@@H]2c3nc[nH]c3CCN2CC(C)(C)CN(C)C)cc1`, the “% Inhibition” value is on record as -14% and the Z score was 1.2.

With `CCCCN(C)c1ncccc1S(N)(=O)=O`, the “% Inhibition” value is recorded as -6% and the Z score is 0.76.

In the case of `CCNC(=O)N1CC[C@H](NC(=O)c2oc3ccccc3c2CC)C1`, the “% Inhibition” value is -14% and the Z score is on record as 2.71.

Regarding `COc1ccc(N2C(=O)[C@H](CC(=O)N3CCc4ccccc4C3)N=C2O)cc1`, the “% Inhibition” value is recorded as -7% and the Z score was 0.94.

For `C=CCOCCCC(=O)N1CC2(CC2)c2ccccc21`, the “% Inhibition” value is recorded as -4% and the Z score is listed as 0.72.

Regarding `O=C1OCCN1CCN(C[C@H](O)c1ccccc1)C1CC1`, the “% Inhibition” value was -12% and the Z score is 1.03.

For the compound `CC(C)NC(=O)CN1CN(c2ccccc2)C2(CCN(S(=O)(=O)c3cccc(C(F)(F)F)c3)CC2)C1=O`, the “% Inhibition” value is -12% and the Z score was determined as 1.42.

In the case of `O=C(CCn1cccn1)NS(=O)(=O)Cc1ccc2c(c1)COC2`, the “% Inhibition” value stood at 6% and the Z score is given as -1.01.

On to `C[C@]1(CO)CN(Cc2ccncc2Cl)c2ccccc2O1`, for which the “% Inhibition” value is recorded as -14% and the Z score is listed as 1.74.

On to `O=C(NCc1ccc(Cn2ccnc2)cc1)c1ccccc1O`, for which the “% Inhibition” value is listed as -2% and the Z score is 0.3.

Take `Cn1cc(-c2noc(C3CC(O)(C4CCCCC4)C3)n2)nn1` (stereo unspecified): the “% Inhibition” value is -16% and the Z score is 2.53.

Turning to `COCC(=O)N[C@@H](CC1CCC1)c1ccccc1`, the “% Inhibition” value was -8% and the Z score is 1.26.

On to `CC(C)c1ncc(C(=O)NCCc2csc(N3CCCC3)n2)s1`, for which the “% Inhibition” value is listed as -14% and the Z score amounted to 1.92.

Turning to `Cc1cc(F)ccc1C1CCN(c2ccc(C(=O)N(C)C)nn2)CC1`, the “% Inhibition” value was 3% and the Z score is on record as -0.47.

In the case of `C[C@]1(O)CCCN(Cc2cc3cc4c(cc3nc2-c2ccc(Cl)cc2)OCO4)C1`, the “% Inhibition” value is -4% and the Z score was 0.46.

For the compound `COc1ccc(C)cc1CN1C(=O)N[C@](C)(c2ccccn2)C1=O`, the “% Inhibition” value is listed as -5% and the Z score came to 0.64.

Regarding `COc1ccc(NC(=O)CN2C(=O)CCc3cc(S(=O)(=O)N4CCCC4)ccc32)cc1Cl`, the “% Inhibition” value is -8% and the Z score came to 1.59.

Consider `CCCCNC(=O)N1CC(C(=O)NCCc2ccc(OC)cc2)CCC1c1ccccc1` (stereo unspecified), for which the “% Inhibition” value was 12% and the Z score is recorded as -1.4.

For `O=C(Nc1nccn(C2CC2)c1=O)[C@H]1CC[C@@H](c2ccccc2)O1`, the “% Inhibition” value is given as -41% and the Z score was 4.81.

For the compound `COc1ccc2cc(-c3nc(CCN(C)C(=O)c4ccc(C)cc4)no3)[nH]c2c1`, the “% Inhibition” value is -8% and the Z score is given as 1.58.

In the case of `CCOc1ccc(NC(=O)Cn2nc3c(N4CCCCC4)nc4ccccc4n3c2=O)cc1`, the “% Inhibition” value is given as 4% and the Z score is -0.61.

For the compound `CC(=O)N1C[C@@H]2C[C@H](NC(=O)Cc3cccc(F)c3)CN2C(=O)[C@@H]1C`, the “% Inhibition” value was -26% and the Z score was 2.28.

Take `CC(C)CN1C(=O)[C@]2(CC(=O)Nc3[nH]ncc32)c2cccc(Cl)c21`: the “% Inhibition” value is given as -1% and the Z score came to 0.12.

Turning to `CC1CC(N2CCOC(c3nc(-c4ccccc4)cs3)C2)C(=O)O1` (stereo unspecified), the “% Inhibition” value is listed as -13% and the Z score was 1.8.

Take `Cc1ccc(C(C)C)c(Oc2ccc(Cl)cc2NC(=O)c2cc(Br)cc(Br)c2O)c1`: the “% Inhibition” value is reported as -8% and the Z score amounted to 1.13.

For the compound `COCC(=O)NC1CN(S(=O)(=O)c2ccc3c(c2)OCCCO3)C1`, the “% Inhibition” value was -3% and the Z score was determined as 0.59.

As to `COC1CC(NC(=O)NC(C)C2CCC(F)(F)CC2)C12CCC2` (stereo unspecified), the “% Inhibition” value is reported as -3% and the Z score was 0.48.

On to `CN(CCO)c1ccc(-c2cnn(C)c2)nn1`, for which the “% Inhibition” value is listed as 2% and the Z score was -0.2.

For the compound `C[C@@H](COCC1CC1)NC(=O)c1c2ccccc2nn1C`, the “% Inhibition” value was -5% and the Z score amounted to 0.86.

As to `CC(=O)NCCCNC(=O)COc1cccc(Cl)c1C`, the “% Inhibition” value is on record as -9% and the Z score worked out at 1.49.

Turning to `O=C1NCC2(CN(C(=O)c3cn4cc(Cl)cc(Cl)c4n3)C2)O1`, the “% Inhibition” value is on record as -5% and the Z score came out at 0.71.

For `CCC[C@H](C)NC(=O)Cc1cccc(F)c1`, the “% Inhibition” value is listed as -8% and the Z score amounted to 1.

Take `COc1ccccc1CCNC(=O)C1CN(C(=O)c2cccs2)C1`: the “% Inhibition” value is given as -9% and the Z score is reported as 1.47.

For `Cc1ccn(CCC(=O)N[C@@H](C)c2nncn2C2CCCC2)n1`, the “% Inhibition” value is -10% and the Z score is listed as 0.94.

As for `COc1ccc(CCNc2nc3c(c(=O)[nH]2)CCC3)cc1OC`, the “% Inhibition” value is -9% and the Z score is recorded as 1.24.

For `Cc1ccc(S(=O)(=O)CCc2ccncc2)cc1`, the “% Inhibition” value is reported as -2% and the Z score stood at 0.16.

As for `C[C@H]1CN(C(=O)c2cc(F)cc3nccnc23)CCN1`, the “% Inhibition” value was -10% and the Z score was determined as 1.14.

As for `CN(C)c1cnc(C(=O)N2CCN(Cc3ccccc3)C(C)(C)C2)cn1`, the “% Inhibition” value is reported as -13% and the Z score came out at 2.19.
